Reference: article PMC11066036
Results are given in words; binding and its absence hold for the method and conditions named. In cells and extracts the contact can be indirect. Some results given as binding are weak or reduced against the parent protein; the word gives no strength. Sequences can lack the tags named with a protein.

Amino acid sequences for entries named in this document (tags omitted). A change or cut given only in a name is not applied to a line headed by its entry. Chains listed by the source or under a name are the forms on record and can include a tag or linker. Residues count along the entry.
HPK1 KD only with LgBit tag (Q92918, residues 1-293): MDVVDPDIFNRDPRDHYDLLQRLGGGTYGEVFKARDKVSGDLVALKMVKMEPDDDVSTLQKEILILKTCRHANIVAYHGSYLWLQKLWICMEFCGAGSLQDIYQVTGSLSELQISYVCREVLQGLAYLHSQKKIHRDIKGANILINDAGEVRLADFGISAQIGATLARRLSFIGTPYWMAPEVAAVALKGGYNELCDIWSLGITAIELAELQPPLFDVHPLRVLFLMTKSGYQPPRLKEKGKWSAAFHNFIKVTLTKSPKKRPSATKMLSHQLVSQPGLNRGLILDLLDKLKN
HPK1 CHD + 3PRs with LgBit tag (Q92918, form named): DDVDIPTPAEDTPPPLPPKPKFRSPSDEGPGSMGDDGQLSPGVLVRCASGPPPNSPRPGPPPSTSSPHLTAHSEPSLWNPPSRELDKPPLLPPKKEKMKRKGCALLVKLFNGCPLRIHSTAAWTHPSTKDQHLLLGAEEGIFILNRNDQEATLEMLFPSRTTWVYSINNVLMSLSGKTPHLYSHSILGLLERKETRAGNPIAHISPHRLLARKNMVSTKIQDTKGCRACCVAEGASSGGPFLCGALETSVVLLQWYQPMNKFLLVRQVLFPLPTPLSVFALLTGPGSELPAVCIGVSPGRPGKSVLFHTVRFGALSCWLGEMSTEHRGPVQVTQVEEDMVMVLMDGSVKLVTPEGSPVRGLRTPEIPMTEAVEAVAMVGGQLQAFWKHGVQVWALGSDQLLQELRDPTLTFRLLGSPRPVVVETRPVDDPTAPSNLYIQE
HPK1 CHD only with LgBit tag (Q92918, form named): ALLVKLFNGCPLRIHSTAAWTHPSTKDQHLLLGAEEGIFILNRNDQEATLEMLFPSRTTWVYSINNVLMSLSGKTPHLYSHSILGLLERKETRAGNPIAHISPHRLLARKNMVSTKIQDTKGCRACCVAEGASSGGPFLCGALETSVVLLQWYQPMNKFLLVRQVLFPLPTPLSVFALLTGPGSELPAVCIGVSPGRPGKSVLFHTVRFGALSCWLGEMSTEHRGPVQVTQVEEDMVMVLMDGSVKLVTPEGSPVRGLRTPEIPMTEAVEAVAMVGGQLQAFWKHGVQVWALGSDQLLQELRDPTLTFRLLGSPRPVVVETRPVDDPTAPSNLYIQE
full-length wild-type HPK1 with NanoBit tag (Q92918, form named): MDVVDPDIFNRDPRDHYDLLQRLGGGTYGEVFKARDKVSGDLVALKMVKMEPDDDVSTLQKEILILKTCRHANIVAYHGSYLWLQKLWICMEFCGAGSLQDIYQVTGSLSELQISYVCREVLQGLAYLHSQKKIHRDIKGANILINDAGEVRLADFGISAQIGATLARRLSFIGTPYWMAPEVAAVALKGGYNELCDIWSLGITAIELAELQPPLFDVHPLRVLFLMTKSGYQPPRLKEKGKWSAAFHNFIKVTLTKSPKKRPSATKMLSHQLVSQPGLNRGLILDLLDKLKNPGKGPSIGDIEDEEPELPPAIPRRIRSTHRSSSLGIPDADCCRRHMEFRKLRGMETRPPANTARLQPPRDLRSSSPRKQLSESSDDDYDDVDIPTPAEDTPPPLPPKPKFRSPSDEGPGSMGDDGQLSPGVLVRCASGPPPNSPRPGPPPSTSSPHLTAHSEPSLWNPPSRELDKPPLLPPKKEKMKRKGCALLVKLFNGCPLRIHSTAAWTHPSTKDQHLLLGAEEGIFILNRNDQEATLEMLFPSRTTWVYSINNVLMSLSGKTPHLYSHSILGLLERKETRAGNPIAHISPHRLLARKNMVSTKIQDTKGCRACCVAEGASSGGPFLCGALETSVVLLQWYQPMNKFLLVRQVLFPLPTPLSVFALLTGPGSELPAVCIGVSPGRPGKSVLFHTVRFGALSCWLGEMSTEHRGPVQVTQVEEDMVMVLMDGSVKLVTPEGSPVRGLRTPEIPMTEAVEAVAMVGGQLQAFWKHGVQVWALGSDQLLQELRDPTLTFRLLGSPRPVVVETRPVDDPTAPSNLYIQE
HPK1 Y381A with LgBit tag (Q92918, form named): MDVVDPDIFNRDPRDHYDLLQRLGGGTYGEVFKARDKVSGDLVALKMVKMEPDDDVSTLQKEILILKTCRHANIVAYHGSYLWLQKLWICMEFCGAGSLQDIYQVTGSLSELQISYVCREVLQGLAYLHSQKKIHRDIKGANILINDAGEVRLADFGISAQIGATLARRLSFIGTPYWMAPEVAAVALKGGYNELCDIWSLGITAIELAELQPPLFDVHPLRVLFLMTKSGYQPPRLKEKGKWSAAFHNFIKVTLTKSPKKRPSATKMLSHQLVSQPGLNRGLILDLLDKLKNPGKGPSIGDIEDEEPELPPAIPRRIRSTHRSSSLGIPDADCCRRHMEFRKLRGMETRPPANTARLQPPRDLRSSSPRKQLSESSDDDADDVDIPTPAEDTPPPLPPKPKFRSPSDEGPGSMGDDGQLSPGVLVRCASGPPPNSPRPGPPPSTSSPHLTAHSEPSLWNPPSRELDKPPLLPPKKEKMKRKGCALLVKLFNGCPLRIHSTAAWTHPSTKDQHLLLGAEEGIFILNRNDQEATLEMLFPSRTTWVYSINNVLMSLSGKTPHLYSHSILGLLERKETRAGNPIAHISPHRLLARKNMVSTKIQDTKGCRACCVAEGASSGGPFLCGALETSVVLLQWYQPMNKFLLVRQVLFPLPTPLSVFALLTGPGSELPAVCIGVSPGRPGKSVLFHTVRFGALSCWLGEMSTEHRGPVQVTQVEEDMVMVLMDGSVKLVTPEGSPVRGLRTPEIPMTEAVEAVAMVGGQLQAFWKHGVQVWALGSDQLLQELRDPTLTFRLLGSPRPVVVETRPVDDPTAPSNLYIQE

Tests used:
Assay in all cases: split reporter; NanoBit in live HPK1-/- Jurkat cells transiently transfected with SmBit-tagged SLP76 and LgBit-tagged HPK1 forms; luminescence over time, with or without TCR stimulation (anti-CD3 and anti-IgG)
[1] = target: HPK1 CHD + 3PRs with LgBit tag (UniProt Q92918)
[2] = target: HPK1 CHD only with LgBit tag (UniProt Q92918)
[3] = target: HPK1 ΔCHD + MAP4K3-CHD with LgBit tag (UniProt Q92918)
[4] = target: full-length wild-type HPK1 with NanoBit tag (UniProt Q92918)
[5] = target: HPK1 KD only with LgBit tag (UniProt Q92918)
[6] = target: HPK1 Y381A with LgBit tag (UniProt Q92918)

- binding [1]: no binding
- binding [2]: no binding
- binding [3]: binds
- binding [4]: binds
- binding [5]: no binding
- binding [6]: no binding
B1: SLP76 with SmBit tag (protein, UniProt Q13094 1-533)
chain: MALRNVPFRSEVLGWDPDSLADYFKKLNYKDCEKAVKKYHIDGARFLNLTENDIQKFPKLRVPILSKLSQEINKNEERRSIFTRKPQVPRFPEETESHEEDNGGWSSFEEDDYESPNDDQDGEDDGDYESPNEEEEAPVEDDADYEPPPSNDEEALQNSILPAKPFPNSNSMYIDRPPSGKTPQQPPVPPQRPMAALPPPPAGRNHSPLPPPQTNHEEPSRSRNHKTAKLPAPSIDRSTKPPLDRSLAPFDREPFTLGKKPPFSDKPSIPAGRSLGEHLPKIQKPPLPPTTERHERSSPLPGKKPPVPKHGWGPDRRENDEDDVHQRPLPQPALLPMSSNTFPSRSTKPSPMNPLPSSHMPGAFSESNSSFPQSASLPPYFSQGPSNRPPIRAEGRNFPLPLPNKPRPPSPAEEENSLNEEWYVSYITRPEAEAALRKINQDGTFLVRDSSKKTTTNPYVLMVLYKDKVYNIQIRYQKESQVYLLGTGLRGKEDFLSVSDIIDYFRKMPLLLIDGKNRGSRYQCTLTHAAGYP
